Test results published in article PMC4336329 (PLoS ONE, 2015).
Hit rate of the full screen: of about 310,000 compounds, about 14,000 (4.5%) showed an effect of 50% or more. Effects have a minus sign here. Some of the results follow.

Biological target: human ether-à-go-go-related gene (hERG) potassium channel (human, UniProt Q12809)
Assay: primary screen, population patch clamp on CHO cells stably expressing hERG
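Note: peak tail current of the secondary pulse compared with the same well before compound.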

human ether-à-go-go-related gene (hERG) potassium channel, sequence (Q12809 whole entry, looked up): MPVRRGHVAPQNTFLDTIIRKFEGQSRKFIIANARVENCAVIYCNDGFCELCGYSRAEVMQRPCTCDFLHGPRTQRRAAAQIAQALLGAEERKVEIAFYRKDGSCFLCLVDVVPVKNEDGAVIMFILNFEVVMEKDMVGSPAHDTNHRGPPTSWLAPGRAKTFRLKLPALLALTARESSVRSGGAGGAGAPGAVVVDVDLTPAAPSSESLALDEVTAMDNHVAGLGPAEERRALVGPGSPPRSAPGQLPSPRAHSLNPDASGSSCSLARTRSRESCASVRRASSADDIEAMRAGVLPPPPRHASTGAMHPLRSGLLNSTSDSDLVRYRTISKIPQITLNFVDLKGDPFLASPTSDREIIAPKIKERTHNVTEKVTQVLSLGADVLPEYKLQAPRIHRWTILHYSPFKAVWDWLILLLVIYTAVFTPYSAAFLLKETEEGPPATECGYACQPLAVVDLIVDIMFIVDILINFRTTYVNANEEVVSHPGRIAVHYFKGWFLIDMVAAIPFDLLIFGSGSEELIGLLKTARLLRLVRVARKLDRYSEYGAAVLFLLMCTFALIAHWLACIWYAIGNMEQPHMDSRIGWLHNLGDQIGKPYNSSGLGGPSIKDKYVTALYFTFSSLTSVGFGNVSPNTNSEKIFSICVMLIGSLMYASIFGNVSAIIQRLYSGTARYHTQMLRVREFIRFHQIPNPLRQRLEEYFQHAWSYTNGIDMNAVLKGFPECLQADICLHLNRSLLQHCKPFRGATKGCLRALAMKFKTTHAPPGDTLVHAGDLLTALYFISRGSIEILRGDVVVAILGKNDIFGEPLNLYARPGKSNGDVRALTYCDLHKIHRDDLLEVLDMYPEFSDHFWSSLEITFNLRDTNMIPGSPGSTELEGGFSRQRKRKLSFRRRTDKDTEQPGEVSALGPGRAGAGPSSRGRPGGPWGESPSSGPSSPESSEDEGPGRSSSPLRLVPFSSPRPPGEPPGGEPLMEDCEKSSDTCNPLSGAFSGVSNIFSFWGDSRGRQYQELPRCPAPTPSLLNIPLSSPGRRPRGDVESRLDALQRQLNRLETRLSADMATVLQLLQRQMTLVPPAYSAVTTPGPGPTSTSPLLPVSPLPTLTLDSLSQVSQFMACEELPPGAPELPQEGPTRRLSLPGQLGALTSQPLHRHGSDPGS

| SMILES | hERG current change (%, negative = inhibition) at 10uM [%] |
| --- | --- |
| COc1cccc(Cn2c(NCc3ccco3)nc3c2c(=O)n(C)c(=O)n3C)c1 | -22.2 |
| O=C(c1ccc(Br)s1)N1CCCC1 | -5.86 |
| O=C(CCC(=O)c1cccs1)OCc1nnc(-c2ccccc2)o1 | -2.42 |
| CC(C)(C)SCCNC(=O)/C=C/c1ccc([N+](=O)[O-])cc1 | -44.7 |
| Cc1cc(F)ccc1NC(=S)NCCc1ccccc1 | 20.9 |
| CCOC(=O)c1c(NC(=O)CCC(=O)O)sc2c1CC(C)(C)OC2 | 15.7 |
| CC(C)Cn1c(C(C)C)nc([N+](=O)[O-])c1Sc1ccc(Cl)cn1 | -6.57 |
| COc1ccc(CCC(=O)Nc2nc(-c3ccncc3)cs2)cc1 | 6.7 |
| CCCc1[nH][nH]c(=O)c1C(c1cccc(Cl)c1)C(C#N)C#N (stereo not shown) | 6.29 |
| CCCN=C(C)c1c(-c2ccccc2)[nH]n(-c2nc3ccccc3s2)c1=O | -7.79 |
| CC(c1ccon1)N(C)C(=O)CCc1nnc(C2(c3ccc(Cl)cc3)CCC2)o1 (stereo not shown) | -3.05 |
| NC(=O)c1ccc(NCCCN2CCOCC2)c([N+](=O)[O-])c1 | 1.65 |
| CC(NC(=O)COc1ccccc1-c1ccccc1)c1ccccc1 (stereo not shown) | -0.046 |
| Cc1cc(C)c(S(C)(=O)=O)c(Oc2ccc(C(C)(C)C)cc2)n1 | -17.6 |
| Cc1cc(Cl)ccc1NC(=O)CN1C(=O)CSc2ccc(S(=O)(=O)N3CCOCC3)cc21 | -18.7 |
| CN(C)CC(O)CN(c1ccccc1)c1ccccc1 (stereo not shown) | -54 |
| CC(c1ccccc1)n1cc(C(=O)NCCN2CCOCC2)nn1 (stereo not shown) | 1.56 |
| CCc1cc2c(=O)n(-c3ccccc3)c(SCC(N)=O)nc2s1 | 8.94 |
| Cc1cc(C(=O)Nc2cccc3ccccc23)co1 | 8.25 |
| CC(C)N1CCN(Cc2ccccc2-c2ccco2)CC1CCO (stereo not shown) | -35.3 |
| Nc1ccc2c(c1)N=[N+]([O-])c1cc(N)ccc1C2 | 16.6 |
| O=C(Nc1ccc(F)cc1)c1ccc2snnc2c1 | -16.9 |
| Cc1cc(C)nc(-n2nc(C)cc2Nc2ccccc2)n1 | -17 |

| SMILES | hERG current change (%, negative = inhibition) at 10uM [%] |
| --- | --- |
| Cc1ccc(S(=O)(=O)N2CCN(C(=O)CSc3nc4ccccc4o3)C2)cc1 | -17.2 |
| O=C(/C=C\c1ccco1)NC(=S)Nc1ccccc1O | 7.66 |
| COc1ccc(NC(=O)c2nc(SC)ncc2Cl)cc1 | -17.3 |
| CCCOc1ccc(C(=O)Nc2nc(C)c(Cc3ccc4c(c3)OCO4)s2)cc1 | 11.3 |
| COc1cccc(NC(=S)/C(=C(\[O-])c2ccc(OC(F)F)cc2)[n+]2ccccc2)c1 | 0.529 |
| O=c1c2ccc(Cl)cc2[nH]c(=S)n1Cc1cccnc1 | 6.96 |
| COc1cccc(C2=NN(S(C)(=O)=O)C(c3cccs3)C2)c1 (stereo not shown) | -3.8 |
| O=C(c1cc(F)c(F)cc1Cl)N1CCCc2ccccc21 | -0.729 |
| Cc1cc(SCC(=O)NCCN2C(=O)CSC2=O)nc2c(C)cccc12 | 0.207 |
| Cn1c(CNC(=O)c2cccs2)n[nH]c1=S | 18.1 |
| CC(C)(O)/C=C1/Oc2ccccc2C1N1CCCCC1 (stereo not shown) | -4.32 |
| COc1ccccc1CNC(=O)CSc1ccc(C(=O)Nc2ccccc2OC)cc1[N+](=O)[O-] | 1.51 |
| CC(C)=C1C2CCC1C1C(=O)N(c3nccs3)C(=O)C21 (stereo not shown) | 33 |
| Cc1ccc(C(=O)NNC(=O)c2cccc(S(=O)(=O)N3CCN(c4ccccc4)CC3)c2)cc1 | -25.4 |
| COc1cc(NC(=O)c2ccc3c(c2)OCO3)c2ncccc2c1 | 12.9 |
| COC(=O)c1ccccc1NC(=O)Cn1cnc2cc(C)c(C)cc21 | -21.2 |
| CCCCC(=O)Nc1ccccc1C(=O)N1CCOCC1 | 2.22 |
| C(#Cc1ccc(C#CCN2CCOCC2)cc1)CN1CCOCC1 | -4.47 |
| Oc1c(N=NC(=S)Nc2ccccc2F)c2ccccc2n1Cc1ccccc1F | 11 |
| Cc1ccc(N2CC(C(=O)Nc3nnc(SCc4ccccn4)s3)CC2=O)cc1 (stereo not shown) | -27.5 |
| CO/N=C\Cc1oc(=O)c(NC(=O)c2ccccc2)cc1C(=O)OC | 0.945 |
| Cc1ccc(Cn2cccc(NC(=O)CCC3CCCC3)c2=O)cc1 | 1.57 |
| Cc1cc(C(=O)Nc2cccc(O)c2)c(C)o1 | 7.6 |
